Experimental data: PubChem BioAssay AID995 (National Center for Advancing Translational Sciences (NCATS), 2007)
Hit rate of the full screen: of about 72,000 compounds, about 710 (0.99%) were called active. This list was built around the results that the source calls inconclusive (neither active nor inactive); the mix of calls is not that of the screen. Calls come from the whole dose curve; as a rule, active = well fitted inhibition curve with a large enough effect; inconclusive = small, poorly fitted or top-dose-only effect; inactive = no such curve, though single readings can be large or run the other way. No potency is given beside an inconclusive call; the fits are too rough.
% is set by controls: 0 for no effect and ±100 for the full control effect; potency is the fitted concentration of half-maximal effect; tags give direction and shape of the fitted curve.

Assay: qHTS Assay for Inhibitors of the ERK Signaling Pathway using a Homogeneous Screening Assay; note: nearly all actives have a fitted effect of over 55% in size
Settings: HEK293-V1b, vasopressin-stimulated pERK AlphaScreen; activity, negative = inhibition: at 57.5 µM (top of the series) unless noted
Summary of the method: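 V1b-HEK293 cells; cpd 30 min 37C; 25 nM vasopressin 5 min; lyse 10 min; AlphaScreen beads 5 hr RT. Normalized to DMSO basal and 25 nM vasopressin; AC50 by Hill fit.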
In the case of `Nc1c(C(=O)N2CCCCC2)sc(=S)n1-c1ccccc1`, the Potency is reported as inconclusive [inhibitor, partial curve].
With `Cc1nc2ccccc2n1CC(=O)OCC(=O)Nc1ccc2c(c1)OCCO2` the Potency was inconclusive [inhibitor, single point].
In the case of `COc1ccc(C(=O)COC(=O)CCN=C2NS(=O)(=O)c3ccccc32)cc1OC`, the Potency is reported as inconclusive [inhibitor, partial curve].
For `CC(C)Sc1nc2c(c(=O)n(C)c(=O)n2C)n1Cc1ccc(Cl)cc1`, the Potency was inconclusive [inhibitor, full curve, poor fit].
For `N#CC1=C(N)N(c2ccccc2)C(c2ccco2)C1(C#N)C#N` (centres undefined), the Potency was inconclusive [inhibitor, partial curve].
In the case of `COc1ccc(C(=O)N2CCC3(CCCN(Cc4ccc(C#N)cc4)C3)CC2)cc1`, the Potency is reported as “inactive”.
With `O=C(Nc1ccc2c(c1)OCO2)C1CCN(S(=O)(=O)c2cccs2)CC1` the Potency was inconclusive [inhibitor, full curve, poor fit].
With `COc1cc(NC(=O)CN2c3cccc4cccc(c34)S2(=O)=O)cc(OC)c1OC` the Potency was “inactive”.
With `COc1ccc(-c2cc3ccccc3n2CC(O)CNC(CO)(CO)CO)cc1` (centres undefined) the Potency was “inactive”.
In the case of `COc1ccccc1-c1ccc2ncnc(NC3CCNCC3)c2c1`, the Potency is reported as “inactive”.
For `NCCOC[C@H](N)C(=O)O`, the activity, negative = inhibition was inactive: 7.96% [at 11.5 µM].
With `O=C(Nc1ccc(CN2CCOCC2)cc1)c1cc2ccccn2n1` the Potency was inconclusive [inhibitor, partial curve].
With `CCOC(=O)Nc1oc2ccccc2c(=O)c1CN1CCOCC1` the Potency was “inactive”.
With `O=C(OCN1C(=O)c2ccccc2C1=O)c1cccs1` the Potency was “inactive”.
With `Cn1c(N)c(C(=O)COC(=O)c2cc(C3CC3)nc3ccccc23)c(=O)n(C)c1=O` the Potency was inconclusive [inhibitor, single point].
For `COc1ccc(C(=O)Nc2ccccc2C(=O)NC(C(=O)NCc2ccco2)C(C)C)cc1` (centres undefined), the Potency was “inactive”.
In the case of `Cc1ccc(-c2ccc(CCC(=O)O)n2C(C)C)cc1`, the Potency is reported as inconclusive [inhibitor, partial curve, poor fit].
In the case of `O=c1c2cn[nH]c2nc(SCc2ccc3c(c2)OCCO3)n1-c1ccccc1`, the Potency is reported as inconclusive [inhibitor, single point].
With `Cc1ccc(-c2[nH]nc3c2C(c2ccc(OC(=O)N4CCOCC4)cc2)C(C#N)=C(N)O3)cc1` (centres undefined) the Potency was inconclusive [inhibitor, partial curve].
For `Cc1nn(C)c(C)c1CNC(=O)c1cc2n(n1)C(C(F)(F)F)CC(c1cccs1)N2` (centres undefined), the Potency was active: 31.6 µM.
With `COCCn1c(=N)c(C(=O)NCc2ccco2)cc2c(=O)n3ccccc3nc21` the Potency was “inactive”.
With `C/C(N)=C(/C#N)C(=O)CSc1nnc(SCc2ccc(Cl)cc2)s1` the Potency was inconclusive [inhibitor, single point].
In the case of `O=C(NC1CCCCCCC1)C1=COCCO1`, the Potency is reported as “inactive”.
In the case of `Fc1ccc(Nc2nc(N3CCOCC3)c3ccccc3n2)cc1`, the Potency is reported as inconclusive [inhibitor, single point].
With `COc1cccc(Nc2ncc3ncc(=O)n(CCc4ccccc4)c3n2)c1` the Potency was inconclusive [inhibitor, full curve, poor fit].
In the case of `Nc1nonc1-c1nc2ccccc2n1CC(=O)NC1CCCC1`, the Potency is reported as “inactive”.
In the case of `FC(F)(F)c1ccccc1-c1nccc(NCCN2CCOCC2)n1`, the Potency is reported as “inactive”.
With `Cc1ccc(N)cc1CN1CCCC1=O` the Potency was inconclusive [inhibitor, full curve, poor fit].
In the case of `O=C(c1ccc(F)cc1)c1ccc(N2CCCC2)cc1`, the Potency is reported as “inactive”.
For `c1ccc(-c2csc(N3CCN(c4ccccn4)CC3)n2)cc1`, the Potency was active: 15.8 µM.
In the case of `COc1ccc(OCC(=O)Nc2cccc(-c3nc4ccccc4o3)c2)cc1`, the Potency is reported as inconclusive [inhibitor, partial curve].
With `CCOC(=O)c1[nH]c2ccc(F)cc2c1NC(=O)c1cc(OC)c(OC)c(OC)c1` the Potency was inconclusive [inhibitor, partial curve].
With `Clc1ccc(-c2nnc(-c3ccccc3)o2)c(Cl)c1` the Potency was “inactive”.
With `COC(=O)c1cc2nc(-c3ccc(OC)cc3)cc(C(F)(F)F)n2n1` the Potency was “inactive”.
For `COc1ccc2[nH]cc(CCNc3ccnc(-c4ccc(C(=O)N(C)C)cc4)n3)c2c1`, the Potency was “inactive”.
With `Fc1ccccc1N1CCN(CCCNc2ccc3nncn3n2)CC1` the Potency was “inactive”.
With `Cc1ccc(-n2ncc3c(=O)n(CC(=O)N4CCCc5ccccc54)cnc32)cc1C` the Potency was active: 25.1 µM.
For `COc1ccccc1-c1ccc2ncnc(NC3CC3)c2c1`, the Potency was “inactive”.
For `N#Cc1nc(COc2ccc(Cl)cc2Cl)oc1N1CCOCC1`, the Potency was inconclusive [inhibitor, single point].
In the case of `O=C(NCc1ccco1)c1cccc(NC(=O)c2ccccc2)c1`, the Potency is reported as inconclusive [inhibitor, single point].
For `COc1ccc(-c2nc(C#N)c(NCCc3ccccc3)o2)cc1`, the Potency was active: 15.8 µM.
In the case of `CCOc1ccc(C(C)=O)cc1COC(=O)C1=COCCO1`, the Potency is reported as inconclusive [inhibitor, full curve, poor fit].
With `C=CCSC1=C(C#N)C(c2ccccc2OC)CC(=O)N1` (centres undefined) the Potency was inconclusive [inhibitor, single point].
For `COc1ccc(OC)c(-c2cc(C(=O)Nc3c(C)nn(Cc4ccccc4)c3C)no2)c1`, the Potency was inconclusive [inhibitor, partial curve, poor fit].
With `O=C(c1ccco1)N1C(=O)c2cccc3cccc1c23` the Potency was inconclusive [inhibitor, partial curve].
In the case of `COCCNC(=O)c1cc2sc3ccccc3c2s1`, the Potency is reported as inconclusive [inhibitor, single point].
For `COCCn1c(=O)c(-c2cccc(C#N)c2)nc2cnc(N3CCN(C)CC3)nc21`, the Potency was “inactive”.
In the case of `CN(C)c1ncc2nc(CCc3ccccc3)c(=O)n(C[C@H]3CCCO3)c2n1`, the Potency is reported as “inactive”.
With `COC(=O)c1ccccc1NC(=O)C1CC(c2ccccc2O)=NO1` (centres undefined) the Potency was inconclusive [inhibitor, single point].
For `Cc1ccc(C2NC(=O)c3c(sc4c3CCN(C)C4)N2)o1` (centres undefined), the Potency was inconclusive [inhibitor, partial curve].
With `CCC1(C)Cc2c(sc3c2c(=O)n(C)c2nnc(SCCc4ccccc4)n32)CO1` (centres undefined) the Potency was inconclusive [inhibitor, full curve, poor fit].
With `Cc1nc(SCC(=O)N(C)Cc2ccco2)c2c(C)c(C)sc2n1` the Potency was inconclusive [inhibitor, single point].
For `CCOc1ccc(NS(=O)(=O)c2ccc(NS(C)(=O)=O)cc2)cc1`, the Potency was inconclusive [inhibitor, single point].
For `COc1ccc(C2C(=O)N(C3CCCCC3)CC(=O)N2Cc2ccco2)cc1` (centres undefined), the Potency was inconclusive [inhibitor, partial curve, poor fit].
For `COCCOC(=O)c1[nH]c2c(c1C)C(=O)CC(c1ccc(F)cc1)C2` (centres undefined), the Potency was inconclusive [inhibitor, single point].
With `O=C(CSc1nc2ccccc2c(=O)n1CCCO)NCc1ccccc1` the Potency was “inactive”.
With `Cc1ccc2nc(-c3ccc(S(=O)(=O)N4CCOCC4)cc3)cn2c1` the Potency was “inactive”.
In the case of `O=C(Nc1cccc(-c2nc3cc(Cl)ccc3o2)c1)C1CCCO1` (centres undefined), the Potency is reported as active: 20 µM.
In the case of `O=C(NC12CCC(O)C(SC1)/C2=N/O)c1ccccc1` (centres undefined), the Potency is reported as inconclusive [inhibitor, single point].
In the case of `Cc1nc(NC2CCCCC2)c2nc(-c3ccccc3)n(CCN3CCCC3)c2n1`, the Potency is reported as inconclusive [inhibitor, partial curve].
With `O=C(NCc1ccco1)C1CCN(C(=O)c2cc3sccc3n2Cc2ccc(Cl)cc2)CC1` the Potency was inconclusive [inhibitor, full curve].
For `COc1cccc(C(=O)N2CCN(Cc3ccco3)CC2)c1OC`, the Potency was inconclusive [inhibitor, partial curve].
In the case of `COc1cc(-c2nc(S(=O)(=O)c3ccc(C)cc3)c(N3CCOCC3)o2)cc(OC)c1OC`, the Potency is reported as “inactive”.
With `COC(=O)c1c(NC(=O)CN2CCOCC2)sc2c1CCC(C)C2` (centres undefined) the Potency was inconclusive [inhibitor, partial curve].
For `Cc1cccc(CNc2ncnc3ccc(-c4ccc5c(c4)OCO5)cc23)c1`, the Potency was inconclusive [inhibitor, partial curve].
With `CCCCC[C@H](O)/C=C/[C@H]1[C@H](O)CC(=O)[C@@H]1C/C=C\CCCC(=O)O` the Potency was inconclusive [inhibitor, full curve].
In the case of `CN(C)c1ccc(-c2nn3c(C4CCCCC4)nnc3s2)cc1`, the Potency is reported as “inactive”.
For `Cc1ccc(-c2nn(-c3ccccc3)cc2CN(Cc2ccccc2)C(=O)CCC(=O)O)o1`, the Potency was inconclusive [inhibitor, partial curve].
In the case of `CCN[C@@H]1CN(CCCOC)S(=O)(=O)c2sc(S(N)(=O)=O)cc21`, the Potency is reported as “inactive”.
In the case of `O=C(Nc1ccccc1)Nc1ccccc1C(=O)NCc1ccco1`, the Potency is reported as inconclusive [inhibitor, partial curve, poor fit].
In the case of `COc1ccc(Nc2ncccc2C(=O)Nc2ccccc2)cc1`, the Potency is reported as inconclusive [inhibitor, partial curve, poor fit].
For `CN(C)c1ccc(NC(=O)CCCc2ccccc2)cc1`, the Potency was active: 20 µM.
With `O=c1c2ccccc2nnn1CSc1nnc(-c2cccnc2)n1-c1ccccc1F` the Potency was “inactive”.
For `C=CCn1c(SCC(=O)N2CCN(c3ccc(F)cc3)CC2)nnc1-c1cccs1`, the Potency was inconclusive [inhibitor, single point].
